According to the supplement of paper PMC4967469:
Lines with a small IC50 respond at low doses; a fit beyond the top or the lowest dose is shown as a bound at that dose. For AUC the same curve is integrated over the 256-fold range of doses and scaled to a fraction; it is 1 without any effect and falls as sensitivity rises. For part of these data: Where the top dose is marked as inferred, it is not printed in the source and was worked back from the curve model. For part of these data: Drugs with an entry number were screened twice under separate entries, and the two screens often disagree.

How the values were obtained:
Test in all cases: Viability of human cancer cell lines after 72 h of drug (GDSC screen)
[1] = compound: COc1cc2c(NC3CCN(C(C)C)CC3)nc(C3CCCCC3)nc2cc1OCCCN1CCCC1 [UNC0638]
Description: (§1)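 Human cancer cell lines in 384-well plates, medium with 10% serum, drug for 72 h over a 256-fold dose range (nine 2-fold or five 4-fold steps up to the top dose). Adherent lines were fixed and stained with the nucleic acid dye Syto60, suspension lines read with resazurin; signal relative to control wells, capped at 0 and 100%. One two-parameter sigmoid per drug and line, fitted in a mixed model over all curves with the slope shared within a line.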

[2] = compound: O=C(NCCCNc1nc(Nc2cccc(NC(=O)N3CCCC3)c2)ncc1I)c1cccs1 [BX-795]; conditions: top dose 5 µM; top dose inferred
Description: as §1

[3] = compound: Oc1cccc(-c2nc(N3CCOCC3)c3oc4ncccc4c3n2)c1 [PI-103]; conditions: top dose 10.24 µM
Description: as §1

[4] = compound: CCn1c(-c2nonc2N)nc2c(C#CC(C)(C)O)ncc(OC[C@H]3CCCNC3)c21 [GSK690693]; conditions: top dose 10.24 µM; top dose inferred
Description: as §1

[5] = compound: Cc1cccc(-c2[nH]c(C(C)(C)C)nc2-c2ccc3c(c2)OCO3)n1 [SB-505124]; conditions: top dose 10 µM; top dose inferred
Description: as §1

[6] = compound: CC1=C(/C=C/C(C)=C/C=C/C(C)=C/C(=O)O)C(C)(C)CCC1 [Tretinoin]; conditions: top dose 10 µM; top dose inferred
Description: as §1

[7] = top dose 20 µM, screen: GDSC drug entry 1236, top dose inferred
[8] = top dose 40 µM, screen: GDSC drug entry 245

Cell Line | AUC [1, 7] | IC50 [1, 7] [µM] | AUC [1, 8] | IC50 [1, 8] [µM] | AUC [2] | IC50 [2] [µM] | AUC [3] | IC50 [3] [µM] | AUC [4] | IC50 [4] [µM] | AUC [5] | IC50 [5] [µM] | AUC [6] | IC50 [6] [µM]
NCI-H1568 (lung adenocarcinoma, adherent) | 0.768 | 9.39 | 0.982 | > 40 | 0.876 | > 5 | 0.791 | 5.92 | 0.976 | > 10.2 | 0.979 | > 10 | 0.949 | > 10
NCI-H1623 (lung adenocarcinoma, adherent) | 0.966 | > 20 | 0.847 | 39.8 | 0.965 | > 5 | 0.959 | > 10.2 | 0.98 | > 10.2 | 0.983 | > 10 | 0.892 | > 10
NCI-H1651 (lung adenocarcinoma, adherent) | 0.979 | > 20 | 0.987 | > 40 | 0.941 | > 5 | 0.974 | > 10.2 | 0.984 | > 10.2 | 0.948 | > 10 | 0.97 | > 10
NCI-H1688 (small cell lung carcinoma, adherent) | 0.799 | 10.7 | 0.626 | 5.78 | 0.964 | > 5 | 0.844 | 8.46 | 0.968 | > 10.2 | 0.981 | > 10 | 0.976 | > 10
NCI-H1693 (lung adenocarcinoma, adherent) | 0.729 | 8.53 | 0.725 | 16.3 | 0.909 | > 5 | 0.645 | 2.06 | 0.976 | > 10.2 | 0.973 | > 10 | 0.949 | > 10
NCI-H1703 (lung adenocarcinoma, adherent) | 0.858 | > 20 | 0.941 | > 40 | 0.698 | 1.28 | 0.301 | 0.155 | 0.911 | > 10.2 | 0.967 | > 10 | 0.972 | > 10
NCI-H1755 (lung adenocarcinoma, adherent) | 0.811 | 12.8 | 0.639 | 6.45 | 0.824 | 3.61 | 0.783 | 5.07 | 0.984 | > 10.2 | 0.981 | > 10 | 0.983 | > 10
NCI-H1781 (lung adenocarcinoma, adherent) | 0.973 | > 20 | 0.922 | > 40 | 0.95 | > 5 | 0.989 | > 10.2 | 0.981 | > 10.2 | 0.98 | > 10 | 0.989 | > 10
NCI-H1792 (lung adenocarcinoma, adherent) | 0.819 | 9.97 | 0.875 | 32.8 | 0.911 | > 5 | 0.436 | 0.436 | 0.986 | > 10.2 | 0.98 | > 10 | 0.965 | > 10
NCI-H1944 (lung adenocarcinoma, adherent) | 0.931 | > 20 | 0.68 | 8.27 | 0.927 | > 5 | 0.696 | 2.37 | 0.935 | > 10.2 | 0.983 | > 10 | 0.971 | > 10
NCI-H1993 (lung adenocarcinoma, adherent) | 0.847 | > 20 | 0.962 | > 40 | 0.982 | > 5 | 0.631 | 1.65 | 0.965 | > 10.2 | 0.939 | > 10 | 0.982 | > 10
NCI-H2009 (lung adenocarcinoma, adherent) | 0.984 | > 20 | 0.897 | > 40 | 0.875 | > 5 | 0.983 | > 10.2 | 0.987 | > 10.2 | 0.969 | > 10 | 0.977 | > 10
NCI-H2087 (lung adenocarcinoma, semi-adherent) | 0.962 | > 20 | 0.769 | 16.2 | 0.95 | > 5 | 0.736 | 3.22 | 0.986 | > 10.2 | 0.984 | > 10 | 0.982 | > 10
NCI-H2110 (non-small cell lung carcinoma, adherent) | 0.944 | > 20 | 0.741 | 12.5 | 0.886 | > 5 | 0.682 | 2.09 | 0.929 | > 10.2 | 0.985 | > 10 | 0.966 | > 10
NCI-H2172 (non-small cell lung carcinoma, adherent) | 0.923 | > 20 | 0.904 | > 40 | 0.93 | > 5 | 0.975 | > 10.2 | 0.978 | > 10.2 | 0.977 | > 10 | 0.977 | > 10
NCI-H2227 (small cell lung carcinoma, semi-adherent) | 0.812 | 12.5 | 0.725 | 11.9 | 0.848 | 4.49 | 0.425 | 0.388 | 0.924 | > 10.2 | 0.971 | > 10 | 0.814 | 6.38
NCI-H2291 (lung adenocarcinoma, adherent) | 0.844 | > 20 | 0.983 | > 40 | 0.961 | > 5 | 0.978 | > 10.2 | 0.984 | > 10.2 | 0.982 | > 10 | 0.982 | > 10
NCI-H2342 (lung adenocarcinoma, adherent) | 0.953 | > 20 | 0.934 | > 40 | 0.917 | > 5 | 0.967 | > 10.2 | 0.986 | > 10.2 | 0.984 | > 10 | 0.979 | > 10
NCI-H2347 (lung adenocarcinoma, adherent) | 0.801 | 12.3 | 0.804 | 25.4 | 0.854 | > 5 | 0.588 | 1.18 | 0.982 | > 10.2 | 0.974 | > 10 | 0.983 | > 10
NCI-H2405 (lung adenocarcinoma, adherent) | 0.983 | > 20 | 0.927 | > 40 | 0.854 | 4.65 | 0.858 | 9.94 | 0.986 | > 10.2 | 0.97 | > 10 | 0.985 | > 10
NCI-H2444 (non-small cell lung carcinoma, adherent) | 0.987 | > 20 | 0.868 | > 40 | 0.948 | > 5 | 0.976 | > 10.2 | 0.988 | > 10.2 | 0.987 | > 10 | 0.988 | > 10
NCI-H2452 (mesothelioma, adherent) | 0.715 | 5.78 | 0.892 | > 40 | 0.869 | > 5 | 0.984 | > 10.2 | 0.984 | > 10.2 | 0.976 | > 10 | 0.968 | > 10
NUGC-4 (stomach, adherent) | 0.797 | 9.41 | 0.673 | 7.61 | 0.962 | > 5 | 0.947 | > 10.2 | 0.977 | > 10.2 | 0.968 | > 10 | 0.985 | > 10
NY (osteosarcoma, adherent) | 0.859 | 16.2 | 0.989 | > 40 | 0.865 | 4.33 | 0.989 | > 10.2 | 0.989 | > 10.2 | 0.985 | > 10 | 0.959 | > 10
OACM5-1 (oesophagus, semi-adherent) | 0.958 | > 20 | 0.695 | 9.52 | 0.981 | > 5 | 0.196 | 0.0691 | 0.381 | 0.287 | 0.979 | > 10 | 0.943 | > 10
OACp4C (oesophagus, adherent) | 0.832 | 16.5 | 0.71 | 11.2 | 0.8 | 3 | 0.386 | 0.29 | 0.77 | 4.68 | 0.92 | > 10 | 0.975 | > 10
OAW-42 (ovary, adherent) | 0.983 | > 20 | 0.876 | > 40 | 0.867 | > 5 | 0.728 | 3.04 | 0.878 | > 10.2 | 0.984 | > 10 | 0.971 | > 10
OC-314 (ovary, adherent) | 0.827 | 9.95 | 0.868 | 28 | 0.891 | 4.37 | 0.404 | 0.365 | 0.927 | > 10.2 | 0.974 | > 10 | 0.991 | > 10
OE19 (oesophagus, adherent) | 0.898 | > 20 | 0.95 | > 40 | 0.952 | > 5 | 0.984 | > 10.2 | 0.986 | > 10.2 | 0.982 | > 10 | 0.967 | > 10
OE21 (oesophagus, adherent) | 0.697 | 5.57 | 0.785 | 24.6 | 0.774 | 2.75 | 0.828 | 9.86 | 0.929 | > 10.2 | 0.963 | > 10 | 0.906 | > 10
